Assay results published in the supplement of paper PMC4967469.

Key:
Assay in all cases: Viability of human cancer cell lines after 72 h of drug (GDSC screen)
[1] = compound: COc1cc(N2CCC(O)CC2)ccc1Nc1cc(Nc2ccccc2S(=O)(=O)C(C)C)c2cc[nH]c2n1 [MPS-1-IN-1]; conditions: top dose 20 µM; top dose inferred
Protocol: (§1)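 Human cancer cell lines in 384-well plates, medium with 10% serum, drug for 72 h over a 256-fold dose range (nine 2-fold or five 4-fold steps up to the top dose). Adherent lines were fixed and stained with the nucleic acid dye Syto60, suspension lines read with resazurin; signal relative to control wells, capped at 0 and 100%. One two-parameter sigmoid per drug and line, fitted in a mixed model over all curves with the slope shared within a line.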

[2] = compound: Nc1ccn([C@@H]2O[C@H](CO)[C@@H](O)[C@@H]2O)c(=O)n1 [Cytarabine]; conditions: top dose 2 µM
Protocol: as §1

[3] = compound: COc1cc(O)c2c(c1)/C=C/C[C@H](O)[C@H](O)C(=O)/C=C\C[C@H](C)OC2=O [(5Z)-7-Oxozeaenol]; conditions: top dose 10 µM; top dose inferred
Protocol: as §1

[4] = compound: Cc1ccc(F)c(NC(=O)Nc2ccc(-c3cccc4[nH]nc(N)c34)cc2)c1 [ABT-869]; conditions: top dose 1.024 µM; top dose inferred
Protocol: as §1

[5] = compound: COc1nc(C)cnc1NS(=O)(=O)c1cccnc1-c1ccc(-c2nnco2)cc1 [Zibotentan]; conditions: top dose 20 µM; top dose inferred
Protocol: as §1

[6] = compound: C[C@]1(c2nc3c(C(N)=O)cccc3[nH]2)CCCN1 [ABT-888]; conditions: top dose 5 µM; top dose inferred
Protocol: as §1

[7] = compound: O=c1cc(-c2cccc3c2Sc2ccccc2S3)oc(N2CCOCC2)c1 [KU-55933]; conditions: top dose 10 µM
Protocol: as §1

[8] = compound: Cc1cnc(-c2cnc(NCCNc3ccc(C#N)cn3)nc2-c2ccc(Cl)cc2Cl)[nH]1 [CHIR-99021]
Protocol: as §1

[9] = compound: COc1cc2ncnc(-n3nc(-c4ccccn4)nc3N)c2cc1OC [CP466722]; conditions: top dose 16 µM; top dose inferred
Protocol: as §1

[10] = compound: C/C=C(/C)C(=O)O[C@H]1C(C)=C2[C@H]([C@@H]1OC(=O)CCCCCCC)[C@@](C)(OC(C)=O)C[C@H](OC(=O)CCC)[C@@]1(O)[C@H]2OC(=O)[C@@]1(C)O [Thapsigargin]; conditions: top dose 0.512 µM; top dose inferred
Protocol: as §1

[11] = compound: C=CC(=O)Nc1cc(-n2c(=O)ccc3cnc4ccc(-c5cn[nH]c5)cc4c32)ccc1C [QL-X-138]; conditions: top dose 10.24 µM; top dose inferred
Protocol: as §1

[12] = compound: CCn1c(-c2nonc2N)nc2cnc(Oc3cccc(NC(=O)c4ccc(OCCN5CCOCC5)cc4)c3)cc21 [GSK269962A]; conditions: top dose 5 µM; screen: GDSC drug entry 1192; top dose inferred
Protocol: as §1

[13] = top dose 2.56 µM, screen: GDSC drug entry 154
[14] = top dose 10 µM, screen: GDSC drug entry 1241, top dose inferred

Row | Cell Line | AUC [1] | IC50 [1] [µM] | AUC [2] | IC50 [2] [µM] | AUC [3] | IC50 [3] [µM] | AUC [4] | IC50 [4] [µM] | AUC [5] | IC50 [5] [µM] | AUC [6] | IC50 [6] [µM] | AUC [7] | IC50 [7] [µM] | AUC [8, 13] | IC50 [8, 13] [µM] | AUC [8, 14] | IC50 [8, 14] [µM] | AUC [9] | IC50 [9] [µM] | AUC [10] | IC50 [10] [µM] | AUC [11] | IC50 [11] [µM] | AUC [12] | IC50 [12] [µM]
1 | SiHa (cervix, adherent) | 0.986 | > 20 | 0.715 | 0.565 | 0.717 | 2.87 | 0.985 | > 1.02 | 0.987 | > 20 | 0.987 | > 5 | 0.987 | > 10 | 0.97 | > 2.56 | 0.905 | > 10 | 0.978 | > 16 | 0.986 | > 0.512 | 0.942 | > 10.2 | 0.939 | > 5
2 | T47D (breast, adherent) | 0.833 | > 20 | 0.893 | > 2 | 0.797 | 7.99 | 0.974 | > 1.02 | 0.963 | > 20 | 0.977 | > 5 | 0.944 | > 10 | 0.977 | > 2.56 | 0.974 | > 10 | 0.757 | 8.47 | 0.873 | > 0.512 | 0.526 | 0.783 | 0.826 | > 5
3 | T84 (large intestine, adherent) | 0.879 | > 20 | 0.973 | > 2 | 0.893 | > 10 | 0.986 | > 1.02 | 0.981 | > 20 | 0.989 | > 5 | 0.987 | > 10 | 0.989 | > 2.56 | 0.983 | > 10 | 0.849 | 12.3 | 0.355 | 0.0126 | 0.888 | > 10.2 | 0.907 | > 5
4 | T98G (glioma, adherent) | 0.976 | > 20 | 0.876 | 1.73 | 0.744 | 2.92 | 0.982 | > 1.02 | 0.987 | > 20 | 0.948 | > 5 | 0.984 | > 10 | 0.943 | > 2.56 | 0.871 | 8.24 | 0.858 | 11.6 | 0.267 | 0.00738 | 0.935 | > 10.2 | 0.832 | 2.87
5 | TGBC11TKB (stomach, adherent) | 0.906 | > 20 | 0.965 | > 2 | 0.921 | > 10 | 0.988 | > 1.02 | 0.992 | > 20 | 0.992 | > 5 | 0.963 | > 10 | 0.988 | > 2.56 | 0.981 | > 10 | 0.924 | > 16 | 0.864 | 0.363 | 0.99 | > 10.2 | 0.962 | > 5

IC50 is the fitted dose that halves viability relative to control wells, and lower means more sensitive; where the fit passes the top or lowest dose, that dose stands as a limit. AUC sums up the same curve from the lowest dose to the 256-fold higher top dose; values near 1 show little effect. For some of these results: A top dose marked as inferred comes from the curve model; the source does not state it. For some of these results: Where an entry number is given, a second screen of the drug exists; the two often differ.
